We go through 27 compounds from PubChem BioAssay AID1508623 (National Center for Advancing Translational Sciences (NCATS), 2021).

Out of some 48,000 compounds screened, about 450 (0.94%) were called active. Not shown: some 19% with an inconclusive outcome. Calls follow the shape of the dose curve; as a rule, active = well fitted inhibition curve with a large enough effect; inconclusive = small, poorly fitted or top-dose-only effect; inactive = no such curve, though single readings can be large or run the other way. The list shows a part of the results.

The nature of the assay: Primary qHTS for Identification of Small Molecule Inhibitors of Huntingtin Promoter Activity. Also: nearly all actives have a fitted effect of over 50% in size. To be noted: HEK293 HTT promoter firefly luciferase reporter (activity 0% = vehicle and -100% = no light), 24 h; series mostly up to 57.5 µM; activity change, negative = inhibition: at the top concentration. Summed up: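 Quantitative HTS used concentration series of up to 57.5 uM final on HEK293 luciferase reporter cells, 24 h at 37 degrees C. Readout was Dual-Glo firefly luminescence.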
Background: Quantitative high-throughput screening tests each substance at several concentrations.
Take `Cc1ccc2scc(N3CCN(c4ccc(F)cc4)CC3)c(=O)c2c1`: the “activity change, negative = inhibition” value is inactive: -12.1%.

As for `COc1ccc(NC(=O)c2sc3nc4n(c(=O)c3c2C)CCC4)cc1Cl`, the “activity change, negative = inhibition” value is inactive: 32.5%. As for `O=C(NCc1ccc(Cl)cc1)c1cnc2sc(N3CCCC3)nn2c1=O`, the figure is inactive: 4.64%; as for `CCOc1ccc(C(c2c(O)cc(C)n(CCOC)c2=O)N2CCC(C)CC2)cc1` (configuration not stated), inactive: -9.94%. With `COc1ccc(Cl)cc1NC(=O)CN(c1cccc(C)c1C)S(=O)(=O)c1ccccc1`, the “activity change, negative = inhibition” value was inactive: -34.4%. Next, `O=C(CC1N=C2c3ccccc3N=C(SCc3ccccc3F)N2C1=O)NCc1ccc2c(c1)OCO2` (configuration not stated): inactive: -0.325%; `COc1ccc2c(c1)sc1ncc(C(=O)NCc3cccc(Cl)c3)c(=O)n12`: inactive: 2.33%; `COc1cc(C)ccc1OCCn1c(-c2ccc(Cl)cc2)nc2ccccc2c1=O`: inactive: 1.1%. Next, `Cc1ccc(N(C)S(=O)(=O)c2nnc(NC(=O)C3CCCCC3)s2)cc1`: inactive: 10.7%. As to `CCc1ccc(CNC(=O)c2cc(-c3ccc(Cl)s3)nc3ccccc23)cc1`, the “activity change, negative = inhibition” value was inactive: 0.527%. As to `Cc1ccc(CCNC(=O)c2ccc(CSCc3ccccc3Cl)o2)cc1`, the “activity change, negative = inhibition” value was inactive: -23.1%. As for `O=C(Cc1ccc(NC(=O)N2CCSc3ncccc32)cc1)NCCc1ccccc1`, the “activity change, negative = inhibition” value is inactive: -30.7%. Turning to `CCOC(=O)N1CCc2c(sc3c2c(=O)n(-c2ccc(CC)cc2)c(=O)n3CC(=O)Nc2ccc(C)cc2)C1`, the “activity change, negative = inhibition” value was inactive: -6.26%. As for `CCNc1ccc(-c2nc(-c3ccco3)no2)cc1[N+](=O)[O-]`, the figure is inactive: 63.5%; as for `Cc1ccccc1NC(=O)c1c(NC(=O)Cc2ccccc2)sc2c1CCC2`, inactive: -12.4%. As for `CCOc1ccc(CNC(=O)c2ccc3c(c2)c(C)c(C)n3Cc2ccc(Cl)cc2)cc1`, the “activity change, negative = inhibition” value is inactive: -26.9%. As to `CN(C)S(=O)(=O)n1cc(/C=C(\NC(=O)c2ccccc2)C(=O)NCCCn2ccnc2)c2ccccc21`, the “activity change, negative = inhibition” value is inactive: -0.366%. As for `COc1ccc(N2CC(NC(=O)CCc3ccccc3)CC2=O)cc1OC` (configuration not stated), the figure is inactive: 3.58%; as for `Cc1ccc2oc(=O)n(CCCOc3ccc(Cl)cc3)c2c1`, inactive: -5.13%; as for `CCOC(=O)c1ccccc1NC(=O)N1CCC(N2CCN(Cc3ccccc3)C(=O)C2=O)CC1`, inactive: 2.48%. With `O=C(Cn1c(=O)n(CC2CCCO2)c(=O)c2ccccc21)Nc1cccc(Cl)c1` (configuration not stated), the “activity change, negative = inhibition” value was inactive: -11.3%. With `COc1cc(OC)c(Nc2nc3ccccc3nc2-n2nc(C)cc2C)cc1Cl`, the “activity change, negative = inhibition” value was inactive: -27.7%. As for `COC(=O)c1scc(-c2ccc(C)cc2)c1S(=O)(=O)N1CCN(c2ccc(OC)cc2)CC1`, the figure is inactive: -22.3%; as for `CCS(=O)(=O)N1CCc2cc(C(=O)NCc3ccccc3)ccc21`, inactive: 6.41%. Turning to `Cc1ccc(-c2nc3nc(C)cc(Nc4ccccc4O)n3n2)cc1`, the “activity change, negative = inhibition” value is inactive: -6.7%. In the case of `Cc1ccc(CCn2c3c(c4cc(Cl)ccc42)CN(C)CC3)cn1`, the “activity change, negative = inhibition” value was inactive: -2.98%.

For the compound `COc1cc(OC)c(NS(=O)(=O)c2cc(-c3cnc(C)o3)ccc2OC)cc1Cl`, the “activity change, negative = inhibition” value was inactive: -29.4%.
